The list shows a part of the results.
System: T1, Caupolican (Caup) homeodomain DNA-binding domain
T1 sequence: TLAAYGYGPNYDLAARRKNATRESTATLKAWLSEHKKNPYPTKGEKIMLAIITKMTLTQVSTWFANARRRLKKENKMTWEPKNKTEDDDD
Experiment: PBM E-score (8-mer, recovered from the published 9-mer minima) (E-score (dimensionless, -0.5 to 0.5)); Drosophila protein; higher = stronger relative binding preference, active = 0.31 or more
Method in brief: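 An enrichment score, with higher meaning stronger, expresses relative binding preference for each short DNA word. The protein used was Caup's homeodomain DNA-binding domain (residues 214-303), produced by in vitro transcription and translation and tested at 100 nM on custom-designed protein binding microarrays. The 8-mer values were recovered from published 9-mer scores, each equal to the lower of its two constituent 8-mer scores.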

Sequence | PBM E-score
CCGCCTAA | inactive: -0.13
GTACTCTA | inactive: 0.131
TCCTTCGA | inactive: -0.134
ATAAGGTA | inactive: 0.0661
GAAAGTTC | inactive: -0.11
GATCGAAA | inactive: 0.00179
AAGAGTTC | inactive: -0.104
GAAGATTC | inactive: -0.0356
CGTCTAAA | inactive: -0.0517
CCGGCATA | inactive: -0.16
CTGAGTAC | inactive: 0.00015
GCTCGGCA | inactive: -0.0697
GGTGCGAC | inactive: -0.129
CAATCTAC | inactive: 0.0389
GCTCAATA | inactive: 0.0388
CCAGATAC | inactive: -0.0148
ATAAATAG | inactive: 0.108
CTGCAGAC | inactive: -0.0249
GCATTATA | inactive: 0.0926
AGGCCTAG | inactive: -0.139
AACCCTAT | inactive: 0.0597
AGTTCAAA | inactive: 0.0225
CAGAATAA | inactive: 0.0835
GGAATGAA | inactive: 0.00414
AAGTACAT | active: 0.402

Sequence | PBM E-score
TCAGTAGA | inactive: 0.00032
AAGTTCGC | inactive: -0.11
ACTGCCCC | inactive: -0.225
CTAGGAAG | inactive: 0.0196
TCCTGTCA | inactive: 0.199
AATTCCCC | inactive: -0.105
CACCCGTG | inactive: -0.0729
CGTGGTTC | inactive: -0.0425
GTCTATTA | inactive: 0.0665
CTTTAGAC | inactive: 0.0237
ACTCGCAG | inactive: -0.0895
GAACTGTC | inactive: 0.0387
TTATAAAA | inactive: 0.0405
GAGAGGAC | inactive: -0.058
CCTCAGCA | inactive: -0.0796
CGAACTCG | inactive: -0.0126
AGGCGATG | inactive: -0.0742
CCTTAGAG | inactive: -0.184
CCGTCGTA | inactive: 0.0177
CACTTGGC | inactive: -0.0642
CCGTAATC | inactive: 0.0401
AACTCCCC | inactive: -0.132
TCTACTCA | inactive: 0.0258
CCTATTCA | inactive: -0.00252
ACGAGATA | inactive: 0.127

Sequence | PBM E-score
GAAAATCC | inactive: -0.00172
AAGACCCT | inactive: -0.077
AAGGACCC | inactive: -0.181
GCGCACGA | inactive: -0.107
GGATATCA | inactive: 0.0642
GTATGGAC | inactive: 0.0661
CAGAGGCC | inactive: -0.195
CACTGCGG | inactive: -0.058
TCTCCACA | inactive: -0.0944
AACAATGC | inactive: 0.265
ATTGTTGC | inactive: 0.224
ACTTCAAT | inactive: 0.0416
AGTCCAAA | inactive: 0.0583
CCTTTTCA | ≥ 0.0749
AAGCGCCA | inactive: -0.167
ATTCCCTA | ≥ 0.0498
CACCCGAC | inactive: -0.0564
CTGGCGTC | inactive: -0.194
ACAGTTTC | inactive: 0.0345
TACCAAGA | inactive: 0.0618
ATGTCGGC | inactive: 0.176
AACTGCCC | inactive: -0.0495
GCAGTTGA | inactive: -0.0151
CCCCAGCA | inactive: -0.169
AATAGTCT | inactive: 0.0735

Sequence | PBM E-score
TCGCAGAA | inactive: -0.101
AGGCCACT | inactive: -0.16
CCACAGGA | inactive: -0.0146
AAGAGCCC | inactive: -0.231
TACACCAA | inactive: 0.184
CCAAAACG | inactive: -0.0574
AGATGTCA | inactive: 0.279
ACGTACAC | active: 0.333
TATTATAA | inactive: 0.204
AGCCTCGG | inactive: -0.191
AAAGGGCT | inactive: -0.155
ACGCGCGT | inactive: -0.0789
GCCCCGAC | inactive: -0.204
CGTACACC | inactive: 0.205
GGCTAAGA | inactive: -0.118
AGCGCCGG | inactive: -0.275
AACCAGTT | ≥ 0.156
AGACATTG | inactive: 0.126
ACGGAGTA | inactive: -0.0665
TACTGAAA | inactive: 0.017
GGTGATCA | inactive: 0.0743
CAGGCTCA | inactive: -0.0139
AAGCTCCC | inactive: -0.184
GGTTATGA | inactive: 0.117
CTCAGACA | inactive: 0.0892

Sequence | PBM E-score
AATCATTG | inactive: 0.153
CCGACCTC | inactive: -0.11
TGTGGGAA | inactive: -0.00309
ATACGCAC | inactive: -0.0271
ATCGTCCA | inactive: -0.0793
GGCGTCGA | inactive: -0.144
AGCCTGAT | inactive: -0.0388
AAGAACTG | inactive: -0.0508
ACTAATGC | inactive: -0.0197
ACGCCGTC | inactive: -0.037
GAATCTCA | inactive: 0.0164
GAAGGTAA | inactive: 0.0165
CTCAGATC | inactive: -0.0165
GGATTTAC | inactive: 0.0403
CCCCACGG | inactive: -0.229
ATATCCTA | ≥ 0.148
ACGTGCGG | inactive: -0.0708
CTCTTCTA | inactive: -0.00512
CACTATAG | inactive: 0.0938
GAGAAGGA | inactive: -0.104
CGGTCATC | inactive: -0.0235
AGCCACTA | inactive: -0.0387
CACATTAC | inactive: 0.141
AAAATGGG | inactive: -0.0394
AGCTCGGC | inactive: -0.192

Sequence | PBM E-score
AGCTACTC | inactive: 0.0368
GCTACATA | inactive: 0.248
CCACGACC | inactive: -0.0557
ATAAATAC | inactive: 0.237
GTAAAGCA | inactive: 0.156
CCGGGCCA | inactive: -0.362
CTGAGTGC | inactive: -0.148
CTTGGTTA | inactive: 0.0385
CTACTAAA | inactive: -0.0126
GACCCGTA | inactive: 0.0321
AGATCTAC | inactive: 0.0544
ATAGATGC | inactive: -0.0165
CAGTCGGA | inactive: -0.0896
CGAAACGA | inactive: -0.02
AAGTTTTG | inactive: 0.0307
GCGGGCGA | inactive: -0.23
CGCTACAA | inactive: 0.199
ACCTTATG | inactive: 0.0187
GTCAATAA | inactive: 0.21
TATGATGA | inactive: 0.0995
CAACTCTA | inactive: -0.0633
CGGAGATC | inactive: -0.0891
AAGCGATA | inactive: -0.0558
CGGACGGC | inactive: -0.255
ATGTGGCA | inactive: -0.0135

Sequence | PBM E-score
AGTTCGCC | inactive: -0.107
AATGCTAG | inactive: -0.0187
AAGTAATG | inactive: 0.0922
CGATTGCG | inactive: -0.0701
CCTTTACC | inactive: -0.0506
ACTTGATA | inactive: 0.177
CTGCGCCC | inactive: -0.292
GTTAGTAA | inactive: 0.177
AAGACTTG | inactive: 0.119
AGTTGCAG | inactive: -0.069
ATGTAGTG | inactive: 0.27
CTCACAGA | inactive: -0.0722
GTTATAAA | inactive: 0.197
ACAAAACA | inactive: 0.266
CCGGACGC | inactive: -0.208
AGCCATAG | inactive: 0.00654
AGTGGTGA | inactive: -0.0667
ATGCATAC | inactive: 0.104
CTTCCCCC | inactive: -0.308
ACTCGGCC | inactive: -0.0882
AACTCCCG | inactive: -0.127
TTACTCAA | inactive: 0.0597
CATGCCAA | inactive: 0.112
ATGAAAGA | inactive: 0.0472
CCACGAAA | inactive: -0.0708

Sequence | PBM E-score
CCCTCCCG | inactive: -0.29
GAGCCATC | inactive: -0.148
AAAGCGCA | inactive: -0.165
CTAAAATA | inactive: 0.0383
AAATAATC | inactive: 0.101
ACGCGTTC | inactive: -0.0271
TGGGCAAA | inactive: -0.149
CGACTCCG | inactive: -0.233
CTCAGTGC | inactive: -0.159
CGGGTACG | inactive: -0.113
CTTAGCCA | inactive: -0.0617
CATAACTA | inactive: 0.155
GAGGAGAA | inactive: -0.0843
CAGGGAGC | inactive: -0.191
CACATTTC | inactive: 0.102
CAATACAA | inactive: 0.261
GGTGCCTA | inactive: -0.104
AAAAGATT | inactive: 0.0681
CAGAGCTA | inactive: -0.147
CGCACAAG | inactive: -0.00347
CTAGCGCA | inactive: -0.147
CTCGGGAA | inactive: -0.137
AGTAACAC | inactive: 0.24
ATGGGACC | inactive: -0.0677
CCAATTAG | inactive: 0.0397

Sequence | PBM E-score
CCCCCCAC | inactive: -0.406
CCAGACTA | ≥ 0.0926
ACCAAGCG | inactive: -0.0944
GTCGGCCA | inactive: -0.0886
CCCTAAAA | inactive: -0.107
GGATGAAC | inactive: 0.015
CCGATCAA | inactive: -0.057
GGGCGGAA | inactive: -0.158
ATCGGAAG | inactive: 0.0551
TAATAGTA | inactive: 0.177
CCTAGGAG | inactive: -0.0404
GTTTATTA | inactive: 0.161
GTCCTCCA | inactive: -0.0329
ACATCCAA | inactive: 0.228
ACGGCACA | inactive: 0.00122
AACGGACT | inactive: -0.0289
TATCTAGA | inactive: 0.0449
AGTCAGAA | inactive: 0.00034
CTGGCAAC | inactive: -0.0596
ATAGATCA | ≥ 0.187
AGTTAGAC | inactive: 0.0958
GGTAGCAA | inactive: 0.049
